Results taken from a collection of fitness landscapes (doi:10.1016/j.celrep.2020.107928).
The full ranking holds about 81,000 sequences; the median of “one-hybrid fitness for binding parS DNA” is about -0.17, and the highest 2% start at about 0.51. This is one part of the list.

B1: Caulobacter ParB omega fusion; a variant is named by its letters at X, in order, B8GW30 (parent)
chain: MESVVVGEPGMSEGRRGLGRGLSALLGEVDAAPAQAPGEQLGGSREAPIEILQRNPDQPRRTFREEDLEDLSNSIREKGVLQPILVRPSPDTAGEYQIVAGERAWRAAQRAGLKTVPIMVRELDDLAVLEIGIIENVQRADLNVLEEALSYKVLMEKFERTQENIAQTIGKSXSHVANXMRLLXLPDEVQSYLVSGELTAXHARAIAAAADPVALAKQIIEGGLSVRETEALARKAPNLSAGKSKGGRPPRVKDTDTQALESDLSSVLGLDVSIDHRGSTGTLTITYATLEQLDDLCNRLTRGI

Variants of: B1
Experiment: one-hybrid fitness for binding parS DNA (scaled: cognate 1, non-cognate 0); higher = stronger binding
Details: with parS DNA site
Summary of the method: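 Pre- and post-selection plasmids were Illumina-sequenced, three replicate libraries were pooled, and any variant with under 10 reads was removed. The libraries were Caulobacter ParB with four specificity codons randomised, selected in E. coli USO through a HIS3 reporter whose site is 19 bp from the promoter. Cells grew 48 hours at 37°C on M9 without histidine, with 0.1 mM IPTG and 5 mM 3-AT. Fitness is the log change in variant-to-wild-type read ratio, rescaled against cognate and non-cognate.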

Variant	one-hybrid fitness for binding parS DNA
EMHA	≤ 0.2
AQNG	≤ 0.2
GVFR	≤ 0.2
NINQ	≤ 0.2
KFEG	≤ 0.2
AQLK	≤ 0.2
NPMT	≤ 0.2
SNEQ	≤ 0.2
KLYY	≤ 0.2
IMKY	≤ 0.2
NPMS	≤ 0.2
THAW	≤ 0.2
SIRA	≤ 0.2
HNKR	≤ 0.2
VPVS	≤ 0.2
SPQQ	≤ 0.2
SPTV	≤ 0.2
GVSD	≤ 0.2
IAKL	≤ 0.2
SDWV	≤ 0.2
RNMT	0.678
SRSC	≤ 0.2
SPGI	≤ 0.2
MVCV	≤ 0.2
HRFN	≤ 0.2

Variant	one-hybrid fitness for binding parS DNA
DWAC	≤ 0.2
PNCM	≤ 0.2
MGRL	≤ 0.2
GYEI	≤ 0.2
TVGT	≤ 0.2
MEVS	≤ 0.2
GHPM	≤ 0.2
SCRR	≤ 0.2
ADGS	≤ 0.2
RRFE	≤ 0.2
MSCV	≤ 0.2
RFEQ	≤ 0.2
NDMW	≤ 0.2
QPMG	≤ 0.2
WASV	≤ 0.2
CVKT	≤ 0.2
EFCR	≤ 0.2
VNTA	≤ 0.2
RKKH	0.317
YRSF	≤ 0.2
HIKC	≤ 0.2
TKQG	≤ 0.2
QTLY	≤ 0.2
EARE	≤ 0.2
NEEV	≤ 0.2

Variant	one-hybrid fitness for binding parS DNA
IVHC	≤ 0.2
RNHS	0.911
YFTS	≤ 0.2
LNLG	≤ 0.2
YFFT	≤ 0.2
NQAM	≤ 0.2
PNNR	≤ 0.2
NDCV	≤ 0.2
TDRS	≤ 0.2
LWHR	≤ 0.2
RKKA	0.846
VIVV	≤ 0.2
MQAA	≤ 0.2
AMDS	≤ 0.2
STHM	≤ 0.2
GVPC	≤ 0.2
QISP	≤ 0.2
MMRN	≤ 0.2
KYKW	≤ 0.2
EPKT	≤ 0.2
QIGV	≤ 0.2
QFSG	≤ 0.2
WRFT	≤ 0.2
CMMS	≤ 0.2
NKWT	≤ 0.2

Variant	one-hybrid fitness for binding parS DNA
KHES	≤ 0.2
TFGE	≤ 0.2
FMGS	≤ 0.2
NMRF	≤ 0.2
APGF	≤ 0.2
HSIC	≤ 0.2
TTSS	≤ 0.2
AVMM	≤ 0.2
YINS	≤ 0.2
MDRM	≤ 0.2
RRFR	≤ 0.2
GKLC	≤ 0.2
QATI	≤ 0.2
TTDV	≤ 0.2
HPAN	≤ 0.2
HLQR	≤ 0.2
CYNL	≤ 0.2
IKSK	≤ 0.2
VCES	≤ 0.2
WRNM	≤ 0.2
CNHN	≤ 0.2
IDLF	≤ 0.2
QVNL	≤ 0.2
